# Laboratory results taken from PubChem BioAssay AID662 (National Center for Advancing Translational Sciences (NCATS), 2007).
# About 1,800 (2.5%) of roughly 71,000 compounds were called active. Inconclusive means that the source gave no clear call. Such entries were picked first, then a sample of the others. Calls follow the shape of the dose curve; as a rule, active = well fitted activation curve with a large enough effect in the signal ratio, with a control signal flat (not every such curve was filed as active); inconclusive = small, poorly fitted or top-dose-only effect, or effect the other way, or a change in a side signal; inactive = flat fitted curve, though single readings scatter; the % refers to the signal ratio. A potency beside an inconclusive call is a rough fit, not a confirmed value.
# Test: Cell signaling CRE-BLA (Fsk stim); as to activity change, negative = inhibition: % of control where 0% means no effect
# Settings: CHO CRE-bla reporter (cAMP response element driving beta-lactamase), forskolin EC10, beta-lactamase ratio
# Procedure, shortened: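 Beta-lactamase reporter under a cAMP responsive element in CHO cells; compounds tested in titration series against EC10 NKH 477, 3 h at 37 °C. Read-out: CCF4 FRET ratio 460nm/530nm (excitation 405nm) giving %Activity, fitted to AC50.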
# [1] = activity change, negative = inhibition: at 38.2 µM (top of the series) unless noted
# Potency is read from the fitted curve at half-maximal effect; tags tell the direction and shape of the fitted curve.
compound,measurement,setting,value
CCOc1cc2[nH]c(=O)n(CCCCCC(=O)NCc3ccc4c(c3)OCO4)c(=O)c2cc1OCC,"activity change, negative = inhibition",[1],inconclusive: 7.64%
O=C(COC(=O)C1CCN(S(=O)(=O)c2cccs2)CC1)c1cc2ccccc2o1,Potency,[1],"inconclusive: 3.16 µM [falling, single point]"
COc1ccc(C2C3=C(CC(C)(C)CC3=O)Oc3ncn4nc(-c5cccnc5)nc4c32)cc1OC (configuration not stated),Potency,[1],"inconclusive: 0.251 µM [rising, single point]"
N.N.N.N.N.N.N.N.N.N.N.N.N.N.O.O.[Ru].[Ru].[Ru],Potency,[1],inactive
Nc1ncnc2c1nc(-c1ccccc1)n2[C@H]1O[C@@H](CO)[C@@H](O)[C@H]1O,Potency,[1],"inconclusive: 3.98 µM [rising, single point]"
c1ccc(CCNc2nc3ccccc3n3nnnc23)cc1,"activity change, negative = inhibition",[1],inconclusive: 0.121%
COC(=O)[C@H]1C[C@@H]1[C@H](NC(=O)c1cc(C)nn1C)c1ccccc1,Potency,[1],inactive
c1cc2c(cc1Cn1cnnn1)OCO2,Potency,[1],inactive
CC(C)(C)Cn1nc(-c2ccc(Cl)cc2)c2c(N)ncnc21,Potency,[1],"inconclusive: 0.316 µM [rising, full curve, poor fit]"
CCOC(=O)c1cc(C)n(-n2cnnc2)c1C,Potency,[1],inactive
CCC(Cl)CC(Cl)C(Cl)C(Cl)C(Cl)C(C)Cl (configuration not stated),"activity change, negative = inhibition",[1],inconclusive: 29.9%
Cc1ccc2c(Cl)cc(Cl)c(OCC(=O)NC(=O)NCc3ccco3)c2n1,Potency,[1],"inconclusive: 12.6 µM [rising, partial curve]"
O=C(Nc1ccc(F)c(F)c1)NC1CCCCC1,"activity change, negative = inhibition",[1],inconclusive: -18.7%
CC1CC(C)(C)NCCNC(C)CC(C)(C)NCCN1 (configuration not stated),Potency,[1],"inconclusive: 1 µM [rising, single point]"
CCCOc1ccccc1C1NC(=O)NC(C)=C1C(=O)OCCOC(C)C (configuration not stated),"activity change, negative = inhibition",[1],inconclusive: 43.7% [at 7.6 µM]
Cc1ccc(C2=Nc3ccccc3NC(C)(c3ccc(C)o3)C2)o1 (configuration not stated),Potency,[1],"inconclusive: 12.6 µM [rising, partial curve]"
Cc1cc(C)n(-c2ccc(C(=O)Nc3sccc3C(N)=O)cc2)n1,Potency,[1],"inconclusive: 7.94 µM [rising, partial curve]"
NC(N)=NCCC[C@H](N)C(=O)O,"activity change, negative = inhibition",[1],inconclusive: -28.4%
same,"activity change, negative = inhibition",at 38.2 µM (top of the series),inactive: 2.16%
COc1ccccc1NC(=O)N(Cc1ccco1)Cc1cc2ccc(C)c(C)c2[nH]c1=O,Potency,[1],"inconclusive: 12.6 µM [rising, single point]"
Nc1ccccc1OCCOCCOCCOc1ccccc1N,"activity change, negative = inhibition",[1],inconclusive: 2.76%
CCCn1c(-c2ccc(F)cc2)nc2c(N(C)CCN(C)C)nc(C)nc21,Potency,[1],inactive
Cc1ccc2c(c1C)NC(C(=O)O)C1CC=CC21 (configuration not stated),Potency,[1],"inconclusive: 3.16 µM [falling, partial curve]"
CC(=O)CC1OC(=O)C(Br)=C1NCc1ccccc1 (configuration not stated),"activity change, negative = inhibition",[1],inconclusive: -18.1%
COCC(=O)N1CCC2(CC1)CCN(c1ccccc1)CC2,Potency,[1],inactive
O=C(C1COc2ccccc2O1)N1CCN(c2ccccc2)CC1 (configuration not stated),"activity change, negative = inhibition",[1],inconclusive: -8.9%
O=C(O)CCc1ccc(-c2ccccc2)[nH]1,"activity change, negative = inhibition",[1],inactive: 1.92% [at 7.6 µM]
O=C(O)C(c1ccccc1)N1CCCC1 (configuration not stated),Potency,[1],inactive
Cc1cc(C)n2nc(SCC(=O)Nc3ccc(F)cc3)nc2n1,Potency,[1],active: 5.01 µM
O=C(NCCN1CCOCC1)c1cc2c(=O)n3ccccc3nc2n1Cc1ccccc1,Potency,[1],inactive
COC(=O)c1ccc2c(c1)N(Cc1nc(-c3ccc(Cl)cc3)oc1C)C(=O)C1CCCN21 (configuration not stated),Potency,[1],"inconclusive: 5.01 µM [rising, partial curve]"
CNC(=O)Oc1ccc2c(c1)[C@@]1(C)CCN(C)[C@@H]1N2C,"activity change, negative = inhibition",[1],inconclusive: -9.73%
C=CCc1cccc2cc(C(=O)OCC)c(=O)oc12,Potency,[1],inactive
CCOC(=O)C(C)Sc1nc2c(c(=O)[nH]c(=O)n2C)n1Cc1ccc(Cl)cc1 (configuration not stated),Potency,[1],"inconclusive: 12.6 µM [rising, partial curve]"
O=C(NCCCN1CCOCC1)c1cc(-c2ccc(Cl)cc2)on1,"activity change, negative = inhibition",[1],inconclusive: 2.14%
O=C(O)CCCC(=O)N1CCN(c2cccc(Cl)c2)CC1,"activity change, negative = inhibition",[1],inconclusive: -13.2% [at 7.6 µM]
COc1cc(NC(=O)Nc2cccc(C(C)=O)c2)cc(OC)c1OC,Potency,[1],"inconclusive: 10 µM [rising, single point]"
Cc1nnc(NC(=O)CCCN2C(=O)c3ccccc3C2=O)s1,"activity change, negative = inhibition",[1],inconclusive: 4.97%
Cc1cc(NC(=O)COC(=O)c2ccc(S(=O)(=O)N3CCCc4ccccc43)cc2)no1,Potency,[1],inactive
CC1CCC(NC(=O)c2cc3c(s2)CS(=O)(=O)C3)CC1 (configuration not stated),Potency,[1],inactive
CC1=Nn2c(nnc2-c2ccccc2Cl)SC1,"activity change, negative = inhibition",[1],inconclusive: 2.29%
Cn1c(CCCNC(=O)c2cccs2)nc2ccccc21,Potency,[1],"inconclusive: 12.6 µM [rising, single point]"
COc1ccccc1-c1c(C)nn2c(N3CCN(c4ccccc4OC)CC3)cc(C)nc12,Potency,[1],inactive
COc1ccc(C(=O)Nc2cc(C)on2)cc1,"activity change, negative = inhibition",[1],inconclusive: 14.1% [at 7.6 µM]
COc1cc(C(=O)OCc2cc3ccccc3[nH]c2=O)cc(OC)c1OC,Potency,[1],active: 3.16 µM
CCOc1ccc2[nH]c3c(N4CCN(c5ccccn5)CC4)ncnc3c2c1,"activity change, negative = inhibition",[1],inconclusive: -28.3%
COc1ccc(OC)c(Nc2cc(C)nc3ccccc23)c1,Potency,[1],inactive
Cc1nonc1NC(=O)CSc1nnc(-c2ccoc2C)n1CC(C)C,Potency,[1],inactive
N#CCCSc1ncnc2c1oc1ccccc12,Potency,[1],"inconclusive: 12.6 µM [rising, partial curve]"
CCOC(=O)N1CCN(C(=O)C(NC(=O)c2ccc(CC)cc2)C(C)C)CC1 (configuration not stated),Potency,[1],inactive
CSc1nc2c(c(=O)[nH]1)C(c1ccncc1)C(C(=O)OC(C)C)=C(C)N2 (configuration not stated),Potency,[1],inactive
CCCOC(=O)c1cc(=O)[nH]c2ccccc12,Potency,[1],"inconclusive: 12.6 µM [rising, single point]"
same,"activity change, negative = inhibition",[1],inconclusive: 19.8%
Clc1nc2ccccc2nc1Cl,"activity change, negative = inhibition",[1],inconclusive: -22.8%
CCc1nc2c(sc3nc4c(cc32)COC(C)(C)C4)c(=O)n1Cc1ccco1,Potency,[1],inactive
COc1cc(-c2c(C#N)c(N)nc3c2CCCC3)ccc1O,Potency,[1],"inconclusive: 10 µM [rising, partial curve]"
CC1(C)Cn2c(nnc2-c2cccc(O)c2)S1,Potency,[1],inactive
COc1ccc(-c2csc(N3CCN(C(=O)c4ccco4)CC3)n2)cc1,"activity change, negative = inhibition",[1],inconclusive: -24.8%
O=C(Nc1cc(C(=O)N2CCOCC2)cc(C(=O)N2CCOCC2)c1)c1cc(F)c(F)cc1Cl,"activity change, negative = inhibition",[1],inconclusive: -21.9%
O=C(Cc1cccs1)Nc1ccccn1,"activity change, negative = inhibition",[1],inconclusive: -5.94%
O=C(Cn1cnc2c(nnn2-c2ccccc2)c1=O)NCCc1ccccc1,Potency,[1],active: 12.6 µM
O=C(N1CCOCC1)C(F)(F)C(F)(F)C(F)(F)C(F)(F)C(=O)N1CCOCC1,Potency,[1],inactive
CC(=O)C1=C(O)C(=O)N(Cc2ccccc2)C1c1cccs1 (configuration not stated),Potency,[1],inactive
CN1CCN(c2ncc3nc(CCc4ccccc4)c(=O)n(CCc4ccccc4)c3n2)CC1,"activity change, negative = inhibition",[1],inconclusive: 29%
COCCNc1cc(-c2ccccc2CN(C)C)ncn1,Potency,[1],inactive
COc1ccc2nc3oc(C(=O)N4CCN(c5ccccc5F)CC4)cc3cc2c1,"activity change, negative = inhibition",[1],inconclusive: 23.3%
Cc1ccc(S(=O)(=O)N2CCN(C(=O)CSc3nnc(C)c(=O)[nH]3)CC2)cc1,Potency,[1],inactive
CC(C)(C)NC(=O)c1ccc2c(c1)C(=O)N(C1CCCCC1)C2=O,Potency,[1],"inconclusive: 1.26 µM [rising, full curve, poor fit]"
O=C(O)Cn1c(C(F)(F)F)nc2ccccc21,Potency,[1],"inconclusive: 5.01 µM [falling, single point]"
O=C(CSc1nnc(-c2ccco2)n1-c1ccccc1)N1CCOCC1,Potency,[1],"inconclusive: 25.1 µM [rising, single point]"
c1cncc(CNc2nc(-c3cccnc3)nc3ccccc23)c1,Potency,[1],active: 6.31 µM
N#Cc1c(NC(=O)c2ccc(Br)o2)n(-c2ccccc2)c2nc3ccccc3nc12,Potency,[1],"inconclusive: 12.6 µM [rising, partial curve]"
CC(Oc1ccccc1)C(=O)OCC(=O)NC(=O)NCc1ccco1 (configuration not stated),"activity change, negative = inhibition",[1],inconclusive: 10.5%
COCCNc1nc(-c2ccccc2Cl)nc2ccccc12,"activity change, negative = inhibition",[1],inconclusive: 21.9%
N#Cc1cccc(NC(=O)N2CCC3(CC2)CCN(C(=O)c2ccco2)CC3)c1,Potency,[1],inactive
Cc1ccc(C)n1-n1cnc2scc(-c3cccs3)c2c1=O,Potency,[1],"inconclusive: 3.16 µM [rising, single point]"
Cc1nn(C)c(C)c1S(=O)(=O)N(CC(=O)Nc1nccs1)c1ccc(C(C)C)cc1,Potency,[1],inactive
Cc1ccsc1-c1nc(CSCC(=O)N2CCN(c3ccccc3)CC2)c(C)o1,"activity change, negative = inhibition",[1],inconclusive: -23.6%
O=C(CCN1CCCCC1)c1ccc2c(c1)OCCO2,"activity change, negative = inhibition",[1],inconclusive: -24%
CCCCN(C)CCCNC(=O)c1ccc2c(c1)NC(=O)C(N1CCOCC1)S2 (configuration not stated),Potency,[1],"inconclusive: 3.98 µM [rising, partial curve]"
CCn1c(=O)c2ccccc2n2c(SCC(=O)N3CCCc4ccccc43)nnc12,Potency,[1],inactive
Cc1ccc2[nH]c(=O)c(CN(CCc3ccccc3)C(=O)N3CCOCC3)cc2c1,Potency,[1],inactive
c1ccc(-n2c(SCc3nc(-c4cccs4)no3)nnc2-c2ccco2)cc1,Potency,[1],active: 5.01 µM
COC(=O)c1ccc(C(NC(=O)OCc2ccccc2)/C(C)=C/[C@@H](C)C(=O)NC2CCCCC2)cc1 (some centres not stated),Potency,[1],inactive
COc1ccc(C(c2sc3nc(C)nn3c2O)N2CCC(C(N)=O)CC2)cc1OC (configuration not stated),Potency,[1],"inconclusive: 15.8 µM [rising, partial curve]"
Cc1cc(C#N)c2ccccc2n1,Potency,[1],inactive
CCOC(=O)/N=C(/NC(=O)Nc1ccc(C(=O)OCC)cc1)OC,Potency,[1],inactive
